Results as given in PubChem BioAssay AID588855 (National Center for Advancing Translational Sciences (NCATS), 2011).
The whole screen tested about 410,000 compounds, of which about 5,000 (1.2%) were called active. Inconclusive means that the source gave no clear call. Such entries were picked first, then a sample of the others. Calls follow the shape of the dose curve; as a rule, active = well fitted inhibition curve with a large enough effect; inconclusive = small, poorly fitted or top-dose-only effect; inactive = no such curve, though single readings can be large or run the other way. A potency beside an inconclusive call is a rough fit, not a confirmed value.

Experiment: qHTS for Inhibitors of TGF-b; also: nearly all actives have a fitted effect of over 65% in size
Conditions: HepG2 CAGA-GFP TGF-b/SMAD3 reporter, GFP fluorescence, 18 h, TGF-beta stimulated, 500 pg/mL final; series mostly up to 46.1 µM
Procedure, shortened: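 First, reporter cells (HEPG2 CAGA-GFP) rested 2 h at 37 degrees C. Next, compounds were pinned in and TGF-beta added to 500 pg/mL final. After 18 h, GFP was imaged per cell and summed per well.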
Potency is read from the fitted curve at half-maximal effect; tags tell the direction and shape of the fitted curve.

Row | Compound | Potency
1 | COc1ccc(C)cc1S(=O)(=O)N1CCC(C(=O)NCCc2ccccc2)CC1 | inconclusive: 0.112 µM [inhibitor, full curve, poor fit]
2 | CC(=O)/C(N=Nc1cc2c(cc1[N+](=O)[O-])OCCO2)=C(\C)O | inconclusive: 12.6 µM [inhibitor, single point]
3 | O=C(CCl)N(Cc1cccc([N+](=O)[O-])c1)c1cccc(Cl)c1 | active: 11.2 µM
4 | Cc1ccc(N(CC(=O)NC2CCCC2)C(=O)CCC(=O)Nc2nc(C)cs2)cc1 | inactive
5 | COc1ccc(C(=O)Oc2c(Sc3ccccc3)c(C)nn2-c2ccccc2)cc1OC | inconclusive: 22.4 µM [inhibitor, single point]
6 | O=C(O)CCc1cccc2ccccc12 | inactive
7 | CCOc1ccc(-n2ccc(=O)c(C(=O)Nc3ccc(S(=O)(=O)Nc4ncccn4)cc3)n2)cc1 | inactive
8 | Cc1cc(C)nc(NC(=O)c2ccccc2O)n1 | inactive
9 | CCc1ccc(/C=N/NC(=O)c2cc(-c3ccncc3)nc3ccccc23)s1 | inconclusive: 14.1 µM [inhibitor, single point]
10 | O=C(Nc1ccc2nc(SCC(=O)N3CCCc4ccccc43)sc2c1)c1cccc(Cl)c1 | inconclusive: 0.708 µM [inhibitor, partial curve, poor fit]
11 | CC(C)N(Cc1nnc(-c2ccc(Cl)cc2)o1)C(=O)c1cc2ccccc2o1 | inconclusive: 35.5 µM [inhibitor, single point]
12 | CCCn1ccc2c(OCC(=O)Nc3ccccc3OCC)cccc2c1=O | inconclusive: 5.62 µM [inhibitor, partial curve, poor fit]
13 | Cn1c(SCc2cccc(F)c2)nc2c([nH]c3ccccc32)c1=O | inactive
14 | CCc1ccccc1Nc1cc(C(=O)NCCc2ccccc2)c2ccccc2n1 | inconclusive: 25.1 µM [inhibitor, single point]
15 | CN(C)CC/C=C1\c2cc(Cl)ccc2Sc2cc(F)c(F)cc21 | inconclusive: 22.4 µM [inhibitor, single point]
16 | COc1ccc([C@H]2C[C@@H](O)[C@H](n3cc(COC(=O)c4ccccc4)nn3)CN2CC2CCCCC2)cc1 | inconclusive: 15.8 µM [inhibitor, single point]
17 | O=C(Cn1c(=O)n(-c2ccc(F)cc2)c(=O)c2sc3ccccc3c21)NC1CCCCC1 | inconclusive: 4.47 µM [inhibitor, partial curve, poor fit]
18 | COc1ccccc1/C=C/C(=O)OC(C)CN1CCCCC1 (configuration not stated) | inactive
19 | COC(c1ccc(Cl)cc1)(c1ccc(Cl)cc1)C(Oc1nccc(C)n1)C(=O)O (configuration not stated) | inconclusive: 12.6 µM [inhibitor, partial curve, poor fit]
20 | CCC(=O)N/C(N)=N/c1nc(C)c2cc(OC)ccc2n1 | inconclusive: 4.47 µM [inhibitor, partial curve, poor fit]
21 | COc1ccc(/C=N/NC(=O)C[n+]2ccccc2)c(OC)c1 | inactive

Row | Compound | Potency
22 | Cc1cc(OC(C)C(=O)Nc2ccncc2)ccc1Cl (configuration not stated) | inconclusive: 20 µM [inhibitor, single point]
23 | COc1ccc(NC(=O)CSc2nc(N)c(C#N)cc2C#N)cc1 | inactive
24 | COc1ccc(-c2nc(N3CCCCCC3)sc2C(=O)c2ccccc2)cc1 | inconclusive: 35.5 µM [inhibitor, single point]
25 | Cc1ccccc1-c1nc(CS(=O)(=O)CC(=O)Nc2cccc(C(F)(F)F)c2)c(C)o1 | inconclusive: 12.6 µM [inhibitor, partial curve, poor fit]
26 | Cc1ccc(S(=O)(=O)NCCc2sc3nc(-c4ccccc4)nn3c2C)cc1C | inconclusive: 35.5 µM [inhibitor, single point]
27 | O=C(Nc1nnc(-c2ccc3c(c2)CCCC3)o1)c1ccccc1Cl | inconclusive: 22.4 µM [inhibitor, single point]
28 | Cc1cccc(N2C(=O)C3CCCN3C2=S)c1 (configuration not stated) | inactive
29 | CCOc1ccc(N(CC)S(=O)(=O)N2CCCC(C(=O)NCc3ccc(Cl)cc3)C2)cc1 (configuration not stated) | active: 17.8 µM
30 | CC(=O)c1cccc(NC(=O)Nc2cnn(Cc3ccc(Cl)cc3Cl)c2)c1 | inconclusive: 12.6 µM [inhibitor, single point]
31 | COc1ccc(-c2noc(Cn3c(=O)c4ccccc4n(CC(=O)Nc4cccc(C(F)(F)F)c4)c3=O)n2)cc1 | inconclusive: 11.2 µM [inhibitor, single point]
32 | N#Cc1c(N)nc(SCc2ccccc2)c(C#N)c1-c1ccco1 | inconclusive: 22.4 µM [inhibitor, single point]
33 | CCN(CC(=O)Nc1c(C(=O)OC)[nH]c2ccc(Cl)cc12)c1ccc2c(c1)OCO2 | inconclusive: 15.8 µM [inhibitor, single point]
34 | Cc1cccc(OCC(=O)Nc2ccc(Cl)c(-c3nc4ccccc4[nH]3)c2)c1 | inconclusive: 8.91 µM [inhibitor, partial curve, poor fit]
35 | COc1cc2cnc(-c3ccccc3F)cc2cc1OC | inactive
36 | COC(=O)C1=C(C)N(Cc2ccccc2)C(=NCc2ccc(OC)cc2)N[C@H]1c1cccc(F)c1 | inconclusive: 31.6 µM [inhibitor, single point]
37 | CCCOc1ccc(NC(=O)CC2C(=O)N(c3ccc(Cl)cc3)C(=O)N2CCc2ccncc2)cc1 (configuration not stated) | inconclusive: 35.5 µM [inhibitor, partial curve, poor fit]
38 | CC(C)(C)OC(=O)N1CCc2onc(-c3ccccc3F)c2C1=O | inactive
39 | CN1CCN(C(=O)C23CCC(C)(c4nc5ccccc5nc42)C3(C)C)CC1 (configuration not stated) | inactive
40 | CN1CCc2nc3sc(C(=O)Nc4cccc(C#N)c4)c(N)c3cc2C1 | inconclusive: 31.6 µM [inhibitor, single point]
41 | COc1ccc(CNC(=O)COc2ccc(S(=O)(=O)N3CCOCC3)cc2C)cc1 | inactive
42 | CC1=C(c2ccc(C)c(C)c2)S(=O)(=O)N=C1N1CCC(C(=O)Nc2cccc(F)c2)CC1 | inconclusive: 3.98 µM [inhibitor, partial curve, poor fit]
